This is one part of the list.

The target in the experiment is T1, MBP-FoxP1dN (Mus musculus, UniProt P58462 326-579).
T1 sequence: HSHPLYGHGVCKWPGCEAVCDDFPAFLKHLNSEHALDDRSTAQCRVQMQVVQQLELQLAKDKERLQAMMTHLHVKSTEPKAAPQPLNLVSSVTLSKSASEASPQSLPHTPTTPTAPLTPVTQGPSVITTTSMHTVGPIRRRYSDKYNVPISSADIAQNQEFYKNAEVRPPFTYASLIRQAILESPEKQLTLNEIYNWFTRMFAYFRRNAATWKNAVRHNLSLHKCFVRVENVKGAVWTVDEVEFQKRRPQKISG
The experiment is described as follows: PD-seq (MBP pull-down with sequencing); 20 mM Tris-HCl pH 7.5, 100 mM NaCl, 1.5 mM MgCl2, 0.4 uM protein, 0.1 uM dsDNA library, 30 min, room temperature, amylose pull-down; high values mean tight binding. Particulars: protein: recombinant; tags: His6-MBP; chain copies: 2; dsDNA, one strand shown. An outline of the steps:
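A degenerate double-stranded DNA library, filled in with Klenow, was added at 0.1 µM to 0.4 µM His6-MBP-tagged mouse FoxP3 or FoxP1 fragment lacking the N-terminus, expressed in E. coli. Incubation lasted 30 min at room temperature in Tris pH 7.5 buffer with NaCl and MgCl2, after which complexes were collected on amylose resin, washed three times, digested with proteinase K to free the DNA, barcoded by PCR and sequenced by Illumina. Binding is the pooled-replicate reads-per-million enrichment of pull-down over input.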
On to “GATGATTGTTCTCCCAGCTGATGAATTCAGTCCTTCGAGTAAACAAATTTTCCTAATCTTTCTGTTCAAGCGCCATCTAC”, for which the binding signal was 0.831 RPM ratio (pull-down/input).

Regarding “GATGATTGTTCTCCCAGCTGATGAATTGGGTGCATCGAGTAAACAAATTTTCCTAATCTTTCTGTTCAAGCGCCATCTAC”, the binding signal was 1.22 RPM ratio (pull-down/input).

Consider “GATGATTGTTCTCCCAGCTGATGAATTCTCGACGTCGAGTAAACAAATTTTCCTAATCTTTCTGTTCAAGCGCCATCTAC”, for which the binding signal is 0.871 RPM ratio (pull-down/input).

Consider “GATGATTGTTCTCCCAGCTGATGAATTCGCTCTGTCGAGTAAACAAATTTTCCTAATCTTTCTGTTCAAGCGCCATCTAC”, for which the binding signal is 0.845 RPM ratio (pull-down/input).

For “GATGATTGTTCTCCCAGCTGATGAATTTCCTAGCTCGAGTAAACAAATTTTCCTAATCTTTCTGTTCAAGCGCCATCTAC”, the binding signal is 0.861 RPM ratio (pull-down/input).

In the case of “GATGATTGTTCTCCCAGCTGATGAATTGTTTGTTTCGAGTAAACAAATTTTCCTAATCTTTCTGTTCAAGCGCCATCTAC”, the binding signal is 2.72 RPM ratio (pull-down/input).

For “GATGATTGTTCTCCCAGCTGATGAATTGTCCAACTCGAGTAAACAAATTTTCCTAATCTTTCTGTTCAAGCGCCATCTAC”, the binding signal is 1.02 RPM ratio (pull-down/input).

Regarding “GATGATTGTTCTCCCAGCTGATGAATTGATCGTCTCGAGTAAACAAATTTTCCTAATCTTTCTGTTCAAGCGCCATCTAC”, the binding signal was 0.89 RPM ratio (pull-down/input).

For the sequence “GATGATTGTTCTCCCAGCTGATGAATTCCTTTGTTCGAGTAAACAAATTTTCCTAATCTTTCTGTTCAAGCGCCATCTAC”, the binding signal is 0.871 RPM ratio (pull-down/input).

Take “GATGATTGTTCTCCCAGCTGATGAATTCGTGTTGTCGAGTAAACAAATTTTCCTAATCTTTCTGTTCAAGCGCCATCTAC”: the binding signal is 2.52 RPM ratio (pull-down/input).

As to “GATGATTGTTCTCCCAGCTGATGAATTACACCGGTCGAGTAAACAAATTTTCCTAATCTTTCTGTTCAAGCGCCATCTAC”, the binding signal is 1.05 RPM ratio (pull-down/input).

As for “GATGATTGTTCTCCCAGCTGATGAATTCGGAAGCTCGAGTAAACAAATTTTCCTAATCTTTCTGTTCAAGCGCCATCTAC”, the binding signal is 0.761 RPM ratio (pull-down/input).

Consider “GATGATTGTTCTCCCAGCTGATGAATTCGATACATCGAGTAAACAAATTTTCCTAATCTTTCTGTTCAAGCGCCATCTAC”, for which the binding signal is 1.09 RPM ratio (pull-down/input).

Turning to “GATGATTGTTCTCCCAGCTGATGAATTTTATTACTCGAGTAAACAAATTTTCCTAATCTTTCTGTTCAAGCGCCATCTAC”, the binding signal was 1.01 RPM ratio (pull-down/input).

Consider “GATGATTGTTCTCCCAGCTGATGAATTGACGTCATCGAGTAAACAAATTTTCCTAATCTTTCTGTTCAAGCGCCATCTAC”, for which the binding signal was 1.29 RPM ratio (pull-down/input).

For the sequence “GATGATTGTTCTCCCAGCTGATGAATTGCACCCCTCGAGTAAACAAATTTTCCTAATCTTTCTGTTCAAGCGCCATCTAC”, the binding signal was 1.08 RPM ratio (pull-down/input).

Regarding “GATGATTGTTCTCCCAGCTGATGAATTTCAAGAGTCGAGTAAACAAATTTTCCTAATCTTTCTGTTCAAGCGCCATCTAC”, the binding signal was 0.775 RPM ratio (pull-down/input).

Turning to “GATGATTGTTCTCCCAGCTGATGAATTGCGGGACTCGAGTAAACAAATTTTCCTAATCTTTCTGTTCAAGCGCCATCTAC”, the binding signal is 0.969 RPM ratio (pull-down/input).

For the sequence “GATGATTGTTCTCCCAGCTGATGAATTTTGGGATTCGAGTAAACAAATTTTCCTAATCTTTCTGTTCAAGCGCCATCTAC”, the binding signal is 0.876 RPM ratio (pull-down/input).

As for “GATGATTGTTCTCCCAGCTGATGAATTTATCTCTTCGAGTAAACAAATTTTCCTAATCTTTCTGTTCAAGCGCCATCTAC”, the binding signal was 1.14 RPM ratio (pull-down/input).

Turning to “GATGATTGTTCTCCCAGCTGATGAATTAACAGAGTCGAGTAAACAAATTTTCCTAATCTTTCTGTTCAAGCGCCATCTAC”, the binding signal was 0.832 RPM ratio (pull-down/input).

On to “GATGATTGTTCTCCCAGCTGATGAATTCGTATAATCGAGTAAACAAATTTTCCTAATCTTTCTGTTCAAGCGCCATCTAC”, for which the binding signal is 1.07 RPM ratio (pull-down/input).

Consider “GATGATTGTTCTCCCAGCTGATGAATTTATCATATCGAGTAAACAAATTTTCCTAATCTTTCTGTTCAAGCGCCATCTAC”, for which the binding signal is 1.35 RPM ratio (pull-down/input).

On to “GATGATTGTTCTCCCAGCTGATGAATTCCGACATTCGAGTAAACAAATTTTCCTAATCTTTCTGTTCAAGCGCCATCTAC”, for which the binding signal was 0.846 RPM ratio (pull-down/input).

Turning to “GATGATTGTTCTCCCAGCTGATGAATTTTTGGGTTCGAGTAAACAAATTTTCCTAATCTTTCTGTTCAAGCGCCATCTAC”, the binding signal was 0.898 RPM ratio (pull-down/input).

“GATGATTGTTCTCCCAGCTGATGAATTATCGAGTTCGAGTAAACAAATTTTCCTAATCTTTCTGTTCAAGCGCCATCTAC”: the binding signal is 0.888 RPM ratio (pull-down/input).

In the case of “GATGATTGTTCTCCCAGCTGATGAATTGTATGTATCGAGTAAACAAATTTTCCTAATCTTTCTGTTCAAGCGCCATCTAC”, the binding signal was 1.67 RPM ratio (pull-down/input).

On to “GATGATTGTTCTCCCAGCTGATGAATTCTGCGTTTCGAGTAAACAAATTTTCCTAATCTTTCTGTTCAAGCGCCATCTAC”, for which the binding signal is 0.874 RPM ratio (pull-down/input).

As to “GATGATTGTTCTCCCAGCTGATGAATTTCCAGTATCGAGTAAACAAATTTTCCTAATCTTTCTGTTCAAGCGCCATCTAC”, the binding signal is 0.868 RPM ratio (pull-down/input).

In the case of “GATGATTGTTCTCCCAGCTGATGAATTCAGTGGGTCGAGTAAACAAATTTTCCTAATCTTTCTGTTCAAGCGCCATCTAC”, the binding signal was 0.815 RPM ratio (pull-down/input).

As to “GATGATTGTTCTCCCAGCTGATGAATTCGGCGCATCGAGTAAACAAATTTTCCTAATCTTTCTGTTCAAGCGCCATCTAC”, the binding signal was 1.1 RPM ratio (pull-down/input).

With “GATGATTGTTCTCCCAGCTGATGAATTTTAATGTTCGAGTAAACAAATTTTCCTAATCTTTCTGTTCAAGCGCCATCTAC”, the binding signal is 1.24 RPM ratio (pull-down/input).
